Test results reported in PubChem BioAssay AID493208 (National Center for Advancing Translational Sciences (NCATS), 2011).
Screen size: about 44,000 compounds; about 340 (0.77%) were called active. Not shown: some 5% with an inconclusive outcome. Calls come from the whole dose curve; as a rule, active = well fitted inhibition curve with a large enough effect; inconclusive = small, poorly fitted or top-dose-only effect; inactive = flat fitted curve, though single readings scatter. This is one part of the list.

assay: Acumen qHTS Assay for Inhibitors of the mTORC1 Signaling Pathway in MEF (Tsc2-/-, p53-/-) Cells: Sytravon; settings: phospho-rpS6 immunofluorescence/PI, 24 h; series mostly up to 38.3 µM; activity change, negative = inhibition: at the top concentration;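 note: plate controls were DMSO for no effect and rapamycin for full effect; nearly all actives have a fitted effect of over 50% in size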
How it was run: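 Read-out: phospho-S6 Alexa-488 intensity over PI intensity per well, scored as % active cells using thresholds from rapamycin (7.5 nM) and DMSO controls. Tsc2-/-, p53-/- MEFs exposed to compound for 24 h; PI cell count recorded as viability.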

Activity change, negative = inhibition, inactive:
COc1cc(Nc2ncc3c(n2)CCN(Cc2cc(F)cc(F)c2)C3)cc(OC)c1 3.06%
CCCC12CN3CC(CCC)(CN(C1)C3c1c(C)[nH]c(=O)[nH]c1=O)C2=O (stereo not given) -0.847%
CCc1nn(Cc2c(C)cc(C)cc2C)c(=O)c2cc3cc(C)ccc3n12 -2.88%
CCOc1ccccc1NC(=O)c1nn(C)c2c1CSc1ccccc1-2 -19.1%
COc1ccc(C)cc1NC(=O)CN1C(=O)COc2ccc(S(=O)(=O)NC3CCCC3)cc21 2.78%
CCOc1ccc(-c2csc(-c3c(N)c(C(=O)c4ccc5c(c4)OCO5)n4ccccc34)n2)cc1 -5.56%
Cn1nc(-c2ccc(N3CCCCC3)c(NC(=O)c3ccc(Cl)cc3)c2)c2ccccc2c1=O -7.9%
Cc1ccccc1CSc1nc2c([nH]c3ccccc32)c(=O)n1C 0.244%
CCOC(=O)c1cc(S(=O)(=O)Nc2ccccc2OCC)[nH]n1 -6.38%
COc1ccc(-n2c(=O)c3c4c(sc3n3c(SC(C)C)nnc23)COC(C(C)C)C4)cc1 (stereo not given) -0.173%
CCCc1cc(=O)[nH]c(SCc2nc(-c3ccccc3F)no2)n1 -0.484%
CC(=O)c1cccc(Nc2ccc3cc(S(=O)(=O)N4CCCC4)ccc3n2)c1 0.834%
COc1ccc(NC(=O)c2cc(=O)c3ccc(C)c(C)c3o2)cc1Cl 0.796%
CC1CCN(S(=O)(=O)c2ccc3c(c2)N(CC(=O)NCCCN2CCCC(C)C2)C(=O)CS3)CC1 (stereo not given) 6.18%
Cc1cccc(CNC(=O)c2ccc(NC(=O)N3CCSc4ncccc43)cc2)c1 0.978%
CCOc1ccc(NC(=O)C(C)Sc2nc3ncccc3o2)cc1 (stereo not given) -2.91%
CC(=O)c1ccc(N2CCN(c3ncnc4c3cnn4C)CC2)cc1 1.78%
Cc1ccc2c(c1)-c1ncc(C(=O)c3cc(Br)ccc3O)cc1CO2 -7.15%
COc1ccc(-n2nc(C(=O)Nc3cccc(C)n3)c3c4ccccc4n(C)c3c2=O)cc1 -0.641%
Cc1cc(C)cc(NC(=O)Cn2c(=O)n(Cc3ccc4c(c3)OCO4)c(=O)c3oc4ccccc4c32)c1 -0.781%
Cc1cccc(CNC(=O)Cn2ccc3cc(S(=O)(=O)N4CCC(C)CC4)ccc32)c1 -9.39%
COc1ccccc1-c1cc(C(F)(F)F)nc(S(=O)(=O)CCCC(=O)Nc2ccc(F)cc2F)n1 -15.6%
O=C(Cn1c(=O)n(Cc2nc(-c3ccccc3)no2)c(=O)c2cc3c(cc21)OCO3)Nc1cccc(C(F)(F)F)c1 0.419%
CCOC(=O)c1c(C)[nH]c(C)c1S(=O)(=O)N(C)CC(=O)Nc1cccc(C(F)(F)F)c1 1.62%
CCOC(=O)C1CCN(C(=O)Cn2ncc3c([nH]c4ccccc43)c2=O)CC1 2.43%
Cc1cccc(C(=O)Nc2nc(-c3nnn(-c4cc(C)ccc4C)c3C)ns2)c1 -0.0384%
COc1ccc(NC(=O)Cn2c(=O)n(Cc3ccco3)c(=O)c3sc4ccccc4c32)cc1OC 6.28%
CCOc1cc(C#N)c(NC(=O)c2ccc(OC)c(S(=O)(=O)N3CCCCC3)c2)cc1OCC 1%
CC(=O)c1ccc(NC(=O)c2cnc(N3CCCC3)nc2C)cc1 0%
O=C(Cn1c(=O)n(Cc2ccco2)c(=O)c2ccccc21)Nc1cccc(F)c1 -1.9%
Cc1ccc(-n2c(-c3ccc(Br)cc3)nc3c(cnn3-c3ccccc3)c2=O)cc1 2.73%
CCc1ccccc1NC(=O)Cn1c(=O)n(-c2ccccc2)c(=O)c2oc3ccccc3c21 -9.15%
COc1ccccc1N1CCN(S(=O)(=O)c2ccc(-c3coc(C)n3)cc2)CC1 -7.89%
Cc1c2cnn(-c3ccccc3)c(=O)c2c(C)n1CC(=O)Nc1ccccc1Br -4.06%
Cc1ccc(N2CCN(C(=O)c3cn(C)c4ccc(S(=O)(=O)N5CCC(C)CC5)cc4c3=O)CC2C)cc1 (stereo not given) -2.41%
O=C(C1CCCCC1)N(Cc1cccnc1)c1nc2ccc(Cl)cc2s1 0.107%
O=C(Nc1nnc(S(=O)(=O)N2CCCc3ccccc32)s1)c1ccc(Cl)cc1 5.01%
CCN(C(=O)CSc1nc(-c2ccc(C(C)C)cc2)no1)c1ccccc1 -19.5%
COc1ccc2c(c1)CC(C(=O)Nc1ccc(Br)c(C)c1)CO2 (stereo not given) -2.25%
Cc1ccccc1-c1nc(CS(=O)(=O)CC(=O)NCCCN2CCN(C)CC2)c(C)o1 0.705%
COc1ccc(C(=O)NCC(=O)OCc2cc(=O)n3nc(C4CCCCC4)sc3n2)cc1 -0.972%
COc1ccc(NC(=O)CSc2nncn3c2cc2occc23)c(OC)c1 -15.6%
COc1ccc(-n2nnc(-c3nc(-c4ccc5c(c4)OCO5)no3)c2C)cc1Cl 0%
CCOC(=O)c1ccc(NC(=O)CCc2c(C)nc3cc(-c4ccc(OC)cc4OC)nn3c2C)cc1 -1.29%
CC(C)Oc1ccc(C(=O)N2CCC(c3nc4ccccc4s3)CC2)cc1 -18.5%
COc1cc(C(=O)Nc2ccc(-c3nc4cc(C)c(C)cc4o3)cc2)cc(OC)c1OC 8.61%
Cc1ccc(SCCNC(=O)CN(c2cccc(C)c2C)S(C)(=O)=O)cc1 -14.7%
CCOC(=O)c1c(C)oc2nc(C)nc(NCCc3ccc(OCC)cc3)c12 5.72%
CC1=C(C(=O)NCc2cccc(Cl)c2)C2(CCCCCC2)OC1=O -3.77%
CC(=O)Nc1ccc(S(=O)(=O)N2CCC(n3c(C)nc4cccnc43)CC2)cc1 0%
CCC(C)NC(=O)Cn1c(=O)n(-c2cc(OC)cc(OC)c2)c(=O)c2ccccc21 (stereo not given) -8.64%
CCOc1ccc(CN(CCc2ccc3c(c2)OCO3)Cc2cc(OC)cc(OC)c2)cc1 -14.6%
Cc1ccc2c(CNCCc3ccco3)c(C(=O)O)n(Cc3ccc(F)cc3)c2c1 -12%
COc1ccc(NC(=O)CCCc2nnc3n(C(C)C)c(=O)c4sccc4n23)cc1Cl 1.35%
CCOc1ccc(NC(=O)Cn2cc(C(=O)C3CC3)c3ccccc32)cc1 -0.789%
COc1ccc(C(=O)Nc2ccc(-c3nc4cc(C)ccc4o3)c(O)c2)cc1 -4.01%
O=C(CSc1nccn1Cc1ccco1)Nc1ccc(OC(F)(F)F)cc1 -2.55%
Cc1cc(=O)[nH]c2nnc(SCc3cccc(C(F)(F)F)c3)n12 0.0896%
Cc1nc(N2CCOCC2)c2c(C(=O)N3CCN(c4cccc(C(F)(F)F)c4)CC3)c(C)oc2n1 6.76%
COc1ccc(NC(=O)C(Cc2ccccc2)NS(=O)(=O)c2ccc3c(c2)oc(=O)n3C)c(OC)c1 (stereo not given) 1.17%
CC(C)c1ccc(NC(=O)Cn2nnc(C(=O)NCCc3ccccc3)c2N)cc1 2.15%
COc1cc(Cl)c(NC(=O)CN2C(=O)c3cccnc3Sc3ccccc32)c(OC)c1 5.2%
Cc1nn(-c2ccccc2)c(-n2cccc2)c1C(=O)NCCCN1CCN(c2ccccc2F)CC1 -2.03%
Cc1ccc(OCC(=O)OCc2cc(=O)n3ccsc3n2)cc1C 4.72%
Cc1nc2ccc(S(=O)(=O)NCC(=O)NCc3ccc(Cl)cc3)cc2s1 -1.13%
COc1ccccc1N1CCN(c2ncc3c(n2)CCN(Cc2ccccc2C)C3)CC1 10.2%
COc1ccc(OC(=O)c2cc(-c3ccc4c(c3)OCCO4)on2)cc1 -9.51%
CCOc1ccc(NC(=O)Cn2c(=O)nc(-c3ccccc3)c3ccccc32)cc1 4.37%
Cc1ccc(C)c(NC(=O)CSc2cn(CC(=O)N3CCCCC3)c3ccccc23)c1 -6.85%
Brc1ccc(-c2cn3cc(Cc4ccccc4)sc3n2)cc1 10.2%
CC1CCN(S(=O)(=O)c2ccc3[nH]ccc3c2)CC1 -8.96%
CCOC(=O)c1ccc(NC(=O)c2noc3c2CCCC3)cc1 -15.2%
Cn1cc(CCCC(=O)NCc2ccc(F)cc2)c2ccccc21 6.89%
O=C1NC(NS(=O)(=O)c2ccccc2)(C(F)(F)F)C(=O)N1CCc1ccccc1 (stereo not given) -7.69%
CCOc1ccc(-c2cc3nc(C4CCN(C(=O)OC(C)(C)C)CC4)c(C(=O)Nc4cccc(Cl)c4C)cn3n2)cc1 3.18%
O=C(CCC(=O)N1CCOc2ccccc21)NCc1cccs1 -0.895%
CCN(c1ccccc1)c1ncnc2c1cnn2-c1ccc(OC)cc1 -2.06%
Cc1ccc2[nH]c3c(=O)n(CC(=O)N4CCN(c5ccccc5F)CC4)ncc3c2c1 1.62%
CC(=O)N1CCCc2cc(S(=O)(=O)N3CCCC(C(=O)Nc4ccc(F)cc4F)C3)ccc21 (stereo not given) 0.925%
Cc1cc(N2CCN(C)CC2)nc2ccc(NC(=O)Nc3ccc(F)cc3)cc12 -2.04%
O=S(=O)(NCCc1nnc2ccc(SCc3cccc(Cl)c3)nn12)c1ccccc1 2.21%
COc1ccc(Cn2c(CNC(=O)Cc3ccc(OC)c(OC)c3)nc3cccnc32)cc1 -1.67%
O=C(Cn1c(=O)n(Cc2ccco2)c(=O)c2sc3ccccc3c21)Nc1ccc(F)cc1F 0.739%
COc1ccc(C(=O)N(Cc2ccco2)Cc2ccccc2F)cc1Cl -21%
COc1ccc(-c2cc(C(F)(F)F)c(C#N)c(SCC(=O)Nc3cccc(C)c3)n2)cc1 4.8%
O=C(NCC(c1ccco1)S(=O)(=O)c1ccc(Cl)cc1)c1ccc(C(F)(F)F)cc1 (stereo not given) -10.5%
Cc1ccc(Cn2c(SCc3ccc(C(=O)O)cc3)nc3cccnc32)cc1 0.955%
COc1cccc(CC(=O)Nc2c(C(=O)N3CCN(c4ccccc4)CC3)oc3ccccc23)c1 -8.67%
CCOC(=O)CCc1c(C)c2cc3c(c(C)c2oc1=O)OCN(CCc1ccccc1OC)C3 -23.9%
CCOc1ccc(CCNC(=O)c2ccc3nc(N4CCC(C)CC4)sc3c2)cc1OCC -0.784%
CCN(CCCNC(=O)CN1N=C(c2ccccc2)CCC1=O)c1cccc(C)c1 6.12%
CCC(C)n1c(=O)c2sccc2n2c(CCCC(=O)Nc3ccc(F)cc3)nnc12 (stereo not given) 4.07%
CSc1ncc(Cl)c(C(=O)Nc2c(C(=O)c3ccc(C)cc3)oc3ccccc23)n1 2.01%
Cc1ccc(NC(=O)NC(C)c2c(-n3cccc3)sc(C)c2C)c(C)c1 (stereo not given) 0.423%
Cc1ccc(SCC(=O)Nc2ccc(O)c(-c3nc4cc(C)ccc4o3)c2)cc1 -1.62%
